Laboratory results reported in PubChem BioAssay AID686970 (National Center for Advancing Translational Sciences (NCATS), 2013).
In all, about 360,000 compounds went through this assay and about 6,000 (1.7%) were called active. This list was built around the results that the source calls inconclusive (neither active nor inactive); the mix of calls is not that of the screen. The call rests on the fitted dose curve; in most records, active means well fitted cell-killing curve with a large enough effect; inconclusive means small, poorly fitted or top-dose-only effect, or effect the other way; inactive means flat fitted curve, though single readings scatter. Potencies of inconclusive entries are left out as doubtful fits.
Potency means the concentration at half of the fitted maximal effect; tags describe the fitted curve by direction and shape.

Assay: qHTS for induction of synthetic lethality in tumor cells producing 2HG: qHTS for the HT-1080-NT fibrosarcoma cell line;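 further: NT is the 2HG producing partner of a matched IDH1 knockdown line; nearly all actives have a fitted effect of over 55% in size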;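 on activity, negative = less viability: 0% = DMSO-treated cells and -100% = media-only wells without cells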
Conditions: HT-1080-NT fibrosarcoma viability, CellTiter-Glo ATP luminescence, 48 h; activity, negative = less viability: at 46.1 µM (top of the series) unless noted
In short: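 Read-out is CellTiter-Glo luminescence after 10 minutes at room temperature, following 48 hours' compound treatment of HT-1080-NT cells (750 cells/well, RPMI, 5% FBS, 37 degrees C).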
With `CCOc1ccc(CCNC(=O)c2ccc(OCc3c(C)noc3C)cc2)cc1OCC` the activity, negative = less viability was inconclusive: -30.5% [cytotoxic]. For `CCN(CC)c1ccc(NC2CC(=O)N(CCc3ccc(OC)cc3)C2=O)cc1` (configuration not stated), the “activity, negative = less viability” value was inactive: -6.15%. For `O=C(Nc1nonc1-c1ccc(Cl)cc1)c1ccccc1`, the Potency was inconclusive [cytotoxic, partial curve, poor fit]. In the case of `O=C(Nc1ccc(Cc2ccncc2)cc1)c1ccc([N+](=O)[O-])o1`, the Potency is reported as active: 3.66 µM. With `Cc1ccc(C)c(NC(=S)NNC(=O)c2csc3c2CCC(C)C3)c1` (configuration not stated) the Potency was inconclusive [cytotoxic, partial curve]. For `COc1ccc2[nH]c3c(c2c1)CCNC3C1CC=C(C)CC1` (configuration not stated), the Potency was inconclusive [cytotoxic, single point]. For `O=C(NC(=S)Nc1ccc2nc[nH]c2c1)c1ccccc1`, the “activity, negative = less viability” value was inactive: -15.4%. With `COc1cccc(C2=CC(c3cc(OC)ccc3OC)n3nnnc3N2)c1` (configuration not stated) the Potency was inconclusive [cytotoxic, partial curve]. In the case of `COC(=O)c1ccccc1NC(=O)CN(c1ccc(C)cc1)S(C)(=O)=O`, the “activity, negative = less viability” value is reported as inactive: 3.8%. With `O=C(COc1ccc(Br)cc1)Nc1nc(-c2cccnc2)cs1` the Potency was inconclusive [cytotoxic, single point]. For `OCCN1CCN(c2ncnc3sc(-c4ccccc4)cc23)CC1`, the Potency was active: 18.4 µM. For `CC(C)c1ccc(CN2CCC(C(=O)NCc3cccnc3)CC2)cc1`, the “activity, negative = less viability” value was inactive: -4.53%. For `CCCN1CCC(C(=O)NC(c2ccc(Cl)cc2)c2ccsc2)CC1` (configuration not stated), the Potency was inconclusive [cytotoxic, single point]. For `CCOC(=O)c1c(NC(=O)CSc2nncs2)sc(C)c1C`, the “activity, negative = less viability” value was inactive: 3.62%. With `Cc1ccc(N=Cc2c(C)[nH]n(-c3nc4ccccc4[nH]3)c2=O)cc1` the Potency was active: 2.91 µM. In the case of `Cn1c2ccccc2c(=O)c2ccc(-c3ccc4c(c3)OCO4)cc21`, the “activity, negative = less viability” value is reported as inactive: -18%. With `CCOc1ccc(-c2c(C(=O)N/N=C/c3ccsc3)nnn2-c2nonc2N)cc1` the Potency was inconclusive [cytotoxic, single point]. For `COc1cc2nc(C3CC3)n(NC(=O)c3ccc(Cl)cc3)c(=O)c2cc1OC`, the Potency was inconclusive [cytotoxic, single point]. For `N=c1c2c(n(Cc3ccccc3)c3c1CCC3)CCC2`, the Potency was inconclusive [cytotoxic, single point]. For `Cc1cccc2c1c1ccc3c(c1n2C)C(=O)C=CC3=O`, the “activity, negative = less viability” value was inactive: 0.332%. With `CC(CCc1ccccc1)NC(=O)c1ccc(NC(=O)c2ccccc2)cc1` (configuration not stated) the Potency was active: 16.4 µM. In the case of `CSc1ccc(CN(C)C(C)C(=O)NCC2CCCCC2)cc1` (configuration not stated), the “activity, negative = less viability” value is reported as inactive: -13.4%.
